Measured values: PubChem BioAssay AID686979 (National Center for Advancing Translational Sciences (NCATS), 2013)
Among all 420,000 compounds or so, about 50,000 (12%) were called active. Inconclusive results, whose numbers are uncertain, are shown with a selection of clear calls. The call rests on the fitted dose curve; in most records, active means well fitted inhibition curve with a large enough effect; inconclusive means small, poorly fitted or top-dose-only effect; inactive means flat fitted curve, though single readings scatter. Potencies of inconclusive entries are left out as doubtful fits.

assay: qHTS for Inhibitors of human tyrosyl-DNA phosphodiesterase 1 (TDP1): qHTS in cells in presence of CPT; conditions: chicken DT40 Tdp1-/-;hTDP1 cells + 20 nM CPT, ATP luminescence, 48 h; activity change, negative = growth inhibition: at 46.2 µM (top of the series); further: nearly all actives have a fitted effect of over 55% in size
How it was run: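 Chicken DT40 Tdp1-/- cells stably complemented with human TDP1 were seeded at 400 cells/well in medium containing 20 nM camptothecin, exposed to pin-transferred compounds, and grown at 37 °C for at least 48 hr. Viability was read as ATP luminescence.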
On the % scale 0 is the no-effect control and ±100 the full control effect; potency means the concentration at half of the fitted maximal effect; tags describe the fitted curve by direction and shape.

| SMILES | Potency | activity change, negative = growth inhibition |
| --- | --- | --- |
| Cn1c(=O)[nH]c(=O)c2[nH]c(CN3CCN(Cc4ccccc4)CC3)nc21 | inactive |  |
| C(=N\NCc1ccccc1)/c1ccc2nccnc2c1 | inconclusive [inhibitor, single point] |  |
| CCCCCC(=O)Nc1ccc(C(=O)CN2C(=O)NC3(CCCCCC3)C2=O)cc1 | active: 5.8 µM |  |
| CS(=O)(=O)N(Cc1ccccc1)c1ccc(C(=O)Nc2ccc3c(c2)OCO3)cc1 | inactive |  |
| Cc1ccc(CNC(=O)C2CCN(c3nn4cc(-c5ccc(F)cc5)nc4s3)CC2)cc1 | inactive |  |
| COc1ccc(CC(=O)Nc2cccc3ncccc23)cc1OC | inactive |  |
| O=C(c1ccc(Cl)nc1)N1CCN(S(=O)(=O)c2ccc(Cl)cc2)CC1 | inconclusive [inhibitor, single point] |  |
| COc1cccc(/C=N/n2cnc3cc(C)c(C)cc32)c1OC | inactive |  |
| C1=C(CCNc2nnnn2-c2ccccc2)CCCC1 | active: 18.4 µM |  |
| CCOC(=O)c1ccc(NC(=S)Nc2cccc(C)n2)cc1 | inconclusive [inhibitor, single point] |  |
| Cc1cc(Cl)ccc1NC(=S)NCCc1ccc(Cl)cc1 | inconclusive [inhibitor, single point] |  |
| CC(C)(C)OC(=O)CC[C@@H](C(=O)N1CCN(C(=O)OC(C)(C)C)CC1)n1cc(C(Cc2ccc(O)cc2)NC(=O)OC(C)(C)C)nn1 (stereo not given in full) | active: 18.4 µM |  |
| Cc1ccc(NC(=O)C2(C)CCN2C(=O)c2ccccc2CCc2ccccc2)cc1C (stereo not given) | active: 20.6 µM |  |
| CCC(C)c1ccccc1N1CC(C(=O)N2CCN(S(=O)(=O)c3cccc([N+](=O)[O-])c3)CC2)CC1=O (stereo not given) | inconclusive [inhibitor, single point] |  |
| COc1ccc(CN2C(=O)CCC2(C)c2nnnn2-c2c(C)cccc2C)cc1 (stereo not given) | inconclusive [inhibitor, single point] |  |
| Cc1ccc(C)c(N2CCN(c3nnnn3-c3ccccc3)CC2)c1 | inconclusive [inhibitor, single point] |  |
| CC(=O)NC(c1ccc(F)c(F)c1)c1nc(-c2cccc(C(C)C)c2)cs1 (stereo not given) | active: 16.4 µM |  |
| COc1cccc(/C(C)=N/Nc2ccc(S(=O)(=O)N3CCCCC3)cn2)c1 | inconclusive [inhibitor, single point] |  |
| CC(=O)Nc1cccc(Oc2cc(C#N)c(C#N)cc2N2CCCCCC2)c1 | inconclusive [inhibitor, single point] |  |
| CCOc1cc2[nH]c(=S)n(Cc3ccc(C(=O)N4CCN(C)CC4)cc3)c(=O)c2cc1OCC | inconclusive [inhibitor, single point] |  |
| COc1cc(CN2CCC(C(N)=O)CC2)ccc1OCc1ccccc1 | inactive |  |
| Cc1ccccc1NC(=O)CSc1ncc2c(n1)-c1ccccc1N(C)S2(=O)=O |  | inconclusive: -33.4% [inhibitor] |
| O=C(Nc1nc(-c2ccc(Cl)cc2Cl)cs1)C1CCCO1 (stereo not given) | inconclusive [inhibitor, partial curve] |  |
| Cc1cccc(NC(=O)CSc2nnc(-c3ccccc3C)o2)c1 | inconclusive [inhibitor, single point] |  |

| SMILES | Potency | activity change, negative = growth inhibition |
| --- | --- | --- |
| CCC(C)Sc1cc(C)c(C#N)c2nc3ccccc3n12 (stereo not given) | active: 18.4 µM |  |
| CCc1cc2c(cc3c(=O)n(CC(=O)NCc4cccc(Cl)c4)nc(CC)n32)s1 | inconclusive [inhibitor, full curve] |  |
| CCC1=Nc2cc(C(=O)NCCc3ccccc3)ccc2Sc2ccc(Cl)cc21 | active: 8.2 µM |  |
| Cn1cnc2nc[nH]c2c1=O | inactive |  |
| Cc1cccc(NC(=O)CCNS(=O)(=O)c2cccc3nonc23)c1C | inactive |  |
| CCCCOc1ccc(C(=O)NCC2(c3ccccc3)CCOCC2)cc1 | active: 20.6 µM |  |
| COc1ccccc1CN(C)C(=O)c1cccc(S(=O)(=O)N2CCN(Cc3ccccc3)CC2)c1 | inconclusive [inhibitor, single point] |  |
| CC1(C)Cc2nc3sc4c(SCC(=O)NC(c5ccccc5)c5ccccc5)ncnc4c3cc2CO1 | active: 8.2 µM |  |
| Cc1cc(-c2ccc(C)c(S(=O)(=O)NCCC(C)N3CCCCCC3)c2)on1 (stereo not given) | inactive |  |
| Cc1cccc(S(=O)(=O)c2cn(Cc3ccccc3)c3cc(N4CCC(C)CC4)c(F)cc3c2=O)c1 | active: 5.8 µM |  |
| CCc1ccc(CNC(=O)c2ccc(OC3CCN(C(C)=O)CC3)c(OC)c2)nc1 | inactive |  |
| N#C/C(=C/c1cccc(O)c1)C(=O)NCc1ccc(Cl)cc1 | inconclusive [inhibitor, single point] |  |
| CC1(C)CC(=O)c2cc(C(=O)Nc3cccc4ccccc34)c(=O)[nH]c2C1 | inconclusive [inhibitor, single point] |  |
| CCN(C[C@H]1N[C@@](Cc2ccccc2)(C(=O)OC)[C@H]2C(=O)N(Cc3ccccc3)C(=O)[C@@H]12)C(=O)c1ccc(C)cc1 | inconclusive [inhibitor, single point] |  |
| CCOc1ccc(CC(=O)Nc2c(C(=O)c3ccc(Cl)cc3)oc3ccccc23)cc1OCC | inconclusive [inhibitor, partial curve] |  |
| Cc1nn(Cc2ccccc2)c2sc(C(=O)NCc3cccnc3)cc12 | inconclusive [inhibitor, single point] |  |
| COc1cccc(OCc2nc3ccccc3n2Cc2ccccc2)c1 | inconclusive [inhibitor, single point] |  |
| COc1cccc(CNC(=O)C(=O)NCC(c2cccs2)S(=O)(=O)c2cccs2)c1 (stereo not given) | inconclusive [inhibitor, single point] |  |
| CC1CC(C)CN(C(=O)c2ccc3c(c2NCCO)C(=O)c2ccccc2C3=O)C1 (stereo not given) | active: 29.1 µM |  |
| Cc1ccc(CN2CCC[C@]3(N[C@H](c4ccccc4)[C@@H]4C(=O)N(C)C(=O)[C@@H]43)C2=O)cc1 | inactive |  |
| COc1ccccc1NC(=O)C(=O)NCCC1CCCCN1S(=O)(=O)c1ccccc1 (stereo not given) | inconclusive [inhibitor, single point] |  |
| CCC(CC)NC(=O)CCCSc1nc2ccccc2[nH]1 | inactive |  |
| O=S(=O)(NCCCc1ccccc1)c1ccc(F)c(F)c1 | inconclusive [inhibitor, partial curve, poor fit] |  |
| Cc1cc(-c2nc3ncccc3o2)ccc1NC(=O)c1ccc([N+](=O)[O-])o1 | inactive |  |

| SMILES | Potency | activity change, negative = growth inhibition |
| --- | --- | --- |
| CCOC(=O)[C@]12CCC=C1N(Cc1ccc(Cl)cc1Cl)C(=O)[C@H](CC(=O)NCc1cccs1)C2 | inconclusive [inhibitor, single point] |  |
| Nc1ccccc1C(=O)N/N=C1\C2CN3CCN(C2)CC1(c1ccccc1)C3 | inactive |  |
| FC(F)(F)c1cnc(N/N=C/c2ccncc2)c(Cl)c1 |  | inconclusive: -31.6% [inhibitor] |
| Cc1cccc2c(=O)n3c(cc12)-c1[nH]c2ccccc2c1CC3 | inconclusive [inhibitor, partial curve] |  |
| O=C(NC(c1ccccc1)c1ccccc1)c1ccc(Br)o1 | inconclusive [inhibitor, full curve, poor fit] |  |
| COc1ccc(S(=O)(=O)N2CC(C)N(C(=O)N(C)C)C2C)cc1 (stereo not given) | inactive |  |
| COc1ccc(C(=O)/C=C/N(C)C)cc1OC | inconclusive [inhibitor, single point] |  |
| CC1CCc2c(sc3nnn(CC(=O)Nc4cccc(C(F)(F)F)c4)c(=O)c23)C1 (stereo not given) | inconclusive [inhibitor, single point] |  |
| O=C(CSc1nnc(-c2ccccc2Cl)o1)N1CCCCC1 |  | inconclusive: -37.7% [inhibitor] |
| COc1cccc(CN2c3ccccc3-c3nc(SCC(=O)Nc4cccc(C)c4)ncc3S2(=O)=O)c1 | inconclusive [inhibitor, single point] |  |
| COc1ccc(-c2cc(C(F)(F)F)nc(NCc3ccccc3)n2)cc1OC | inconclusive [inhibitor, single point] |  |
| Cc1cc(Nc2cccc(F)c2)nc(NCc2ccccc2)n1 | active: 4.11 µM |  |
| Cc1cccc(OC(C)C(=O)N2CCC(c3nc4ccccc4o3)CC2)c1C (stereo not given) | inconclusive [inhibitor, single point] |  |
| O=C1c2ccccc2C(=O)c2c(NCCCN(CCO)CCO)cccc21 | inconclusive [inhibitor, single point] |  |
| Cc1nc2c(-c3ccc(F)cc3)c(C)[nH]n2c(=O)c1Cl | inconclusive [inhibitor, full curve, poor fit] |  |
| CCN(CC)S(=O)(=O)c1ccc(/C=C/C(=O)OCC(=O)NCc2ccc3c(c2)OCO3)cc1 | inconclusive [inhibitor, single point] |  |
| Cc1nc2cc(Oc3nc(NCCN(C)C)nc4ccsc34)ccc2s1 | inconclusive [inhibitor, single point] |  |
| CCN1C(C(=O)c2ccccc2)=C(OC(=O)c2ccc(Cl)cc2)c2ccccc2S1(=O)=O | inconclusive [inhibitor, single point] |  |
| CCOC(=O)c1sc(NNC(=O)c2ccc(F)cc2)nc1C | inconclusive [inhibitor, single point] |  |
| O=C(Nc1cccc(F)c1)NC1CC2CCCC(C1)N2C1CC1 (stereo not given) | inconclusive [inhibitor, single point] |  |
| OCCC1CN(Cc2ccon2)CCN1Cc1ccc(F)c(F)c1 (stereo not given) | inactive |  |
| O=c1c(-c2ccc(F)cc2)nc2cnc(N3CCNCC3)nc2n1Cc1ccc(F)cc1 | inconclusive [inhibitor, single point] |  |
